Test results reported in PubChem BioAssay AID1963576 (National Center for Advancing Translational Sciences (NCATS), 2024).
Hit rate of the full screen: of about 46,000 compounds, about 60 (0.1%) were called active. Another 3% or so got no clear call; they are omitted. Calls come from the whole dose curve; as a rule, active = well fitted inhibition curve with a large enough effect; inconclusive = small, poorly fitted or top-dose-only effect; inactive = no such curve, though single readings can be large or run the other way. Some of the results follow.

Test: Primary qHTS assay for Inhibitors of ovarian cancer metastasis using an organotypic tumor microenvironment (TME) model.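 For activity change, negative = inhibition: plate controls were DMSO wells for no effect and tomatine positive control wells for full effect.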 Note: nearly all actives have a fitted effect of over 65% in size.
Details: SKOV3ip1-GFP adhesion/invasion on 3D omental model, fluorescence; series mostly up to 45.8 µM; activity change, negative = inhibition: at the top concentration
Outline: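 Adhesion/invasion was scored as fixed GFP-labeled SKOV3ip1 cell counts (488/509 nm), normalized to DMSO and tomatine controls. Cancer cells in serum-free medium, with four compound doses (0.36-46 umol/L), sat 2 hr at RT then 16 hr at 37 C on a 48 hr fibroblast/mesothelial/ECM culture.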

Activity change, negative = inhibition, inactive:
O=C(NCc1ccc(Cl)cc1)c1ccc2c(c1)NC(=O)C(CS(=O)(=O)Cc1ccc(F)cc1Cl)N2 (configuration not stated) -5.82%, Clc1ccc(-c2csc(-c3nc(-c4ccc(Br)s4)cs3)n2)cc1 3.58%, CCC(C)Sc1oc(-c2ccco2)nc1S(=O)(=O)c1ccc(Cl)cc1 (configuration not stated) -11.3%, COc1ccc(Nc2nnc(-c3ccc(C)c(S(=O)(=O)NCc4nc5ccccc5[nH]4)c3)c3ccccc23)cc1 -8.7%, CCc1ccc(NC(=O)C2CCCN(S(=O)(=O)c3cccc4nsnc34)C2)cc1 (configuration not stated) -13.6%, O=C(CCN1CCN(CCO)CC1)Nc1ccc(Br)cc1 -6.57%, Cc1cccc(CN2C(=O)c3ccccc3S(=O)(=O)c3ccc(C(=O)N(C)Cc4ccccc4)cc32)c1 29.3%, O=C1CC(c2nnc(Cc3c(F)cccc3Cl)o2)CN1c1ccccc1 (configuration not stated) -2.39%, Cc1ccc(Nc2c(-c3ccc(N4CCOCC4)cc3)nc3cccc(C)n23)cc1 -24.5%, Cc1ccc(NC(=O)c2c(C)nc3sc(C(=O)Nc4ccc(F)cc4)c(N)c3c2-c2ccc(Cl)cc2)c(C)c1 -1.76%, COc1cccc(NC(=O)CCc2nnc3n(Cc4ccccc4Cl)c(=O)c4ccccc4n23)c1 -4.95%, Cc1ccc(-c2nnc3ccccc3c2C(=O)Nc2ccc(C)c(F)c2)cc1 4.03%, COc1ccccc1C(=O)Nc1nnc(S(=O)(=O)N2CCN(c3ccc(F)cc3)CC2)s1 -12%, CCOC(=O)c1ccc(NC2(c3ccccc3)C(=O)c3ccccc3C2=O)cc1 1.21%, COc1ccccc1NC(=O)CN(c1cc(C)cc(C)c1)S(=O)(=O)c1c(C)[nH]c(=O)[nH]c1=O 3.68%, COc1cc(OC)c(NS(=O)(=O)c2cc3c(cc2C)N(C(C)=O)CCO3)cc1Cl -7.84%, CCc1nnc(SCc2nc(-c3cccc(Cl)c3)oc2C)c2cc3sc(C)cc3n12 7.35%, Cc1ccccc1C(=O)NCc1nc(-c2ccc(Cl)cc2)no1 6.84%, Cc1ccc(C)c(Cn2c(=O)cc(C(F)(F)F)c3c(C)nn(C)c32)c1 2.3%, CN(C)c1ccc(CNC(=O)C2CCCN(S(=O)(=O)c3ccc4c(c3)CCCC(=O)N4)C2)cc1 (configuration not stated) 5.25%, Cc1cccc(NC(=O)Cn2nnc(C(=O)NCc3cccs3)c2N)c1 -6.46%, NC(=O)c1c(NC(=O)c2cc(-c3ccc(F)cc3)on2)sc2c1CCCC2 1.77%, Cc1oc(-c2ccc(Cl)cc2)nc1CS(=O)CC(=O)NCCc1ccccc1 (configuration not stated) -17.6%, CCOc1ccc2oc(=O)cc(CN3CCN(Cc4ccc(C)cc4)CC3)c2c1 -4.2%, COc1ccc(N2C(=O)CSC23C(=O)N(Cc2cccc(C(F)(F)F)c2)c2ccccc23)cc1 (configuration not stated) -13.6%, Cc1ccc(Nc2c3c(nc4nc(-c5cccs5)nn24)CCCC3)cc1F -5.77%, Cc1cccc(Cn2c(=O)n(CCCC(=O)NCc3ccccc3Cl)c(=O)c3ccccc32)c1 -0.153%, COc1ccccc1CNc1nc(-c2ccco2)nn1S(C)(=O)=O 2.21%, COc1ccc(S(=O)(=O)NC(C)(C)C)cc1-c1nnc2c3ccccc3c(C)nn12 8.03%, CCOC(=O)Cn1nc(C)c(NC(=O)COc2ccccc2)c1C -10.4%, COc1ccccc1OCC(=O)N(Cc1cccs1)C1CCS(=O)(=O)C1 (configuration not stated) 7.84%, CCN1CCN(c2ncc3c(n2)CCN(CC(C)C)C3)CC1 5.19%, COc1ccc(N(Cc2cccs2)C(=O)COc2cccc(C)c2C)cc1 2.21%, COc1cc(OC)c(NS(=O)(=O)c2c(C(=O)N3CCCCCC3)c(C)n(C)c2C)cc1Cl 5.59%, COc1cc(NC(=O)CCn2c(=O)oc3ccccc32)cc(OC)c1OC -3.53%, COC(=O)CC1Oc2ccc(F)cc2-n2cc(-c3ccc(C)cc3)nc21 (configuration not stated) -27.1%, Cc1ccc(CNc2nc3ccc(Cl)cc3n3nnnc23)cc1 -7.88%, CCOC(=O)N1CCc2c(sc(NCc3cccc(F)c3)c2C(=O)Nc2ccc(OC)cc2)C1 -7.1%, COc1ccc(-n2cc(-c3ccccc3)nc2SCC(=O)Nc2ccccc2C)cc1 1.11%, Cc1cccc(CC(=O)N2CC(=O)Nc3ccc(C)cc3C2c2ccc(F)cc2)c1 (configuration not stated) -11.4%, CCOc1ccc(-n2ccnc2SCC(=O)Nc2cccc3ccccc23)cc1 -8.94%, O=[N+]([O-])c1cc(-c2nc(-c3ccccc3)no2)ccc1NCc1cccnc1 -19.1%, COc1ccccc1Cc1nc2ccccc2nc1SCC(=O)Nc1ccc2c(c1)OCO2 -4.28%, COc1ccccc1CNC(=O)CCCCn1c(=O)c2ccccc2n(CC(=O)Nc2c(C)cc(C)cc2C)c1=O -20.4%, Brc1ccc(Nc2c3c(nc4nncn24)CCC3)cc1 0.537%, Cc1ccc(C(=O)Nc2ccc(-c3nc4ccccc4o3)cc2)cc1Cl 7.8%, Cc1ccc(C)c(NC(=O)C(Cc2ccccc2)n2cccc2)c1 (configuration not stated) 30.4%, CS(=O)(=O)N1CCc2c(-c3cnc(N)nc3)nc(N3CCOCC3)nc21 8.29%, CCc1ccc(NC(=O)C2=C(C)C(=O)OC23CCCCC3)cc1 -12.9%, COc1ccc(OCC(=O)Nc2c(C(=O)N3CCN(c4ccccc4)CC3)oc3ccccc23)cc1 7.17%, COCCNc1nc2c(c(=O)n(Cc3cccc(Cl)c3)c(=O)n2C)n1C -4.08%, Cc1ccc(NC(=O)C2CCC(CNS(=O)(=O)c3ccc4c(c3)CCCC(=O)N4)CC2)cc1F (configuration not stated) 8.2%, CCOC(=O)c1cc(-c2ccccc2)n(CCC(=O)NCCc2cccc(C)c2)c1C -6.6%, COC(=O)c1ccc(NC(=O)C(=O)NCC(c2cccnc2)N2CCN(c3ccccc3)CC2)cc1 (configuration not stated) 2.68%, CCCCNc1oc(-c2ccc(COc3ccccc3C)o2)nc1C#N -48%, O=C(O)c1cccc(NC(=O)c2cc3cc(Br)cc(Br)c3oc2=O)c1 -4.14%, CCCCN1CCCc2cc(CN(CCCN3CCOCC3)C(=O)Nc3ccc(CC)cc3)ccc21 1.79%, CCOC(=O)c1c(-c2ccc(OC)c(OC)c2)csc1NC(=O)c1ccc(C)cc1 -23.8%, COc1ccc(-c2cc(C(=O)Nc3cc(C)nn3-c3ccccc3)no2)cc1OC -1.85%, Cc1ccc(NC(=O)c2cnc3cc(C)ccn3c2=O)c(C)c1 -3.61%, CCCCSc1nc(-c2cccc(OC)c2)nc2c1Cc1c(CO)cnc(C)c1O2 -5.88%, O=S(=O)(NCc1ccc(F)cc1)c1ccc2[nH]c3c(c2c1)CCCC3 9.05%, Cc1c(Cl)cccc1NC(=O)c1oc2ccc(S(=O)(=O)N3CCC4(CC3)OCCO4)cc2c1C -0.227%, Cc1ccc(-c2cc(NC(=O)c3cccc(C)c3)on2)cc1 -15.7%, CCC(=O)Nc1ccc(CC)cc1-c1nc2ccccc2n(CC(=O)c2ccc(OC)cc2)c1=O 23.1%, COc1cccc(-n2c(SCC(N)=O)nc3c(oc4ccccc43)c2=O)c1 -12.3%, COc1ccc(C(=O)Oc2ccc(C(c3c(C)[nH][nH]c3=O)c3c(C)[nH][nH]c3=O)cc2)cc1 7.73%, COc1ccc(NC(=O)C2Cc3ccccc3CN2S(=O)(=O)c2ccccc2)cc1OC (configuration not stated) -2.79%, Cc1cc(S(=O)(=O)Nc2ccc3oc4c(c3c2)CCCC4)ccc1Cl -9.7%, O=C1CN(C(=O)Cc2ccccc2)C(c2ccc(F)cc2)c2cc(Br)ccc2N1 (configuration not stated) 0.872%, Cc1noc(-c2ccc(-c3noc(-c4ccc([N+](=O)[O-])c(C)c4)n3)cc2)n1 -4.85%, COc1ccc(NS(=O)(=O)c2ccc3c(c2)[C@H]2C=CC[C@H]2[C@@H](c2ccc(C(=O)O)cc2)N3)cc1 -5.06%

outcome, inactive:
Cc1ccc(NC(=O)Cn2nnc(C(=O)NCCc3ccccc3)c2N)cc1, COc1ccc(C)cc1NC(=O)c1cc2ccccn2n1, CCOC(=O)c1ccc(NC(=O)c2sc3ccccc3c2Cl)cc1, CCOc1ccccc1C(=O)Nc1ccc(-n2nncc2-c2ccccc2)cc1, COc1ccc(Cl)cc1NC(=O)CCn1c(=O)c2cccn2c2ccccc21, CCC(C(=O)Nc1ccc(C(C)C)cc1)n1nc(C)n2c(cc3cc(C)ccc32)c1=O (configuration not stated), CSc1ccc(NC(=O)C2CCN(c3ncccn3)CC2)cc1, Cc1cc(-c2ccc(C)c(S(=O)(=O)Nc3ccccn3)c2)on1, COc1ccc(Br)cc1CNC(=O)c1ccc2nc(C(C)C)oc2c1, Cc1ccc(NC(=O)CN2C(=O)C(c3ccc(C(C)(C)C)cc3)=NC2(C)C)cc1, CCCN(CCC)C(=O)CSc1c2c(nc3ccc(Cl)cc13)CCCC2, COc1ccc(OC)c(NC(=O)Cn2c(=O)n(Cc3ccco3)c(=O)c3cc(OC)c(OC)cc32)c1, Cc1cc(C)cc(-n2c(SCC(=O)Nc3cccc(F)c3)nc3c([nH]c4ccccc43)c2=O)c1, COc1ccc(N2CCN(C(=O)COc3ccccc3C#N)CC2)cc1, COc1ccc2c(c1)c1c(c(=O)n(Cc3ccccc3)c(=O)n1Cc1ccccc1Cl)n2C, CC(=O)c1cccc(NC(=O)Cc2ccc(NC(=O)N3CCCCc4ccccc43)cc2)c1, COc1ccc(S(=O)(=O)N(CC(=O)NCCSc2ccccc2)c2ccc(C)cc2)cc1, O=C(NCc1ccc(F)cc1)c1cc2cccc3c2n1CCS3, CCc1nonc1NC(=O)c1oc2cc(C)c(C)cc2c1C, CC1CCCCN1C(=O)CN1CCSc2ccccc21 (configuration not stated), CCc1ccccc1NC(=O)CCCn1c(=O)c2cccn2c2ccccc21, CCc1cccc(-n2c(=O)c3cccnc3n2CC(=O)Nc2ccc(OC)c(Cl)c2)c1, CCOc1ccc(NC(=O)[C@@H](c2ccccc2)N2Cc3ccccc3C2=O)cc1, CC(C)c1ccc(N2C(=O)N(Cc3cccc([N+](=O)[O-])c3)c3ccccc3S2(=O)=O)cc1, CC1Cc2cc(S(=O)(=O)NCc3ccc(Cl)cc3)ccc2N1C(=O)C1CCC1 (configuration not stated)
